Reference: the supplement of paper PMC10724272

compound: Nc1[nH]c(=O)ncc1F [flucytosine]; assay: CLSI broth microdilution.

| Test System | MIC |
| --- | --- |
| Candida tropicalis isolate 239 (ERG11 copies: 2, Erg11p: no key change) | 0.12 mg/L [S] |
| Candida tropicalis isolate 420 (ERG11 copies: 2, Erg11p: G464S (heterozygous)) | ≤ 0.06 mg/L [S] |
| Candida tropicalis isolate 198 (ERG11 copies: 7, Erg11p: Y132F, S154F (heterozygous)) | ≤ 0.06 mg/L [S] |
| Candida tropicalis isolate 109 (ERG11 copies: 2, Erg11p: no key change) | ≤ 0.06 mg/L [S] |
| Candida tropicalis isolate 134 (ERG11 copies: 2, Erg11p: no key change) | ≤ 0.06 mg/L [S] |
| Candida tropicalis isolate 33 (ERG11 copies: 2, Erg11p: no key change) | ≤ 0.06 mg/L [S] |
| Candida tropicalis isolate 249 (ERG11 copies: 2, Erg11p: no key change) | ≤ 0.06 mg/L [S] |
| Candida tropicalis isolate 179 (ERG11 copies: 6, Erg11p: Y132F, S154F (heterozygous)) | ≤ 0.06 mg/L [S] |
| Candida tropicalis isolate 68 (ERG11 copies: 2, Erg11p: no key change) | ≤ 0.06 mg/L [S] |
| Candida tropicalis isolate 22 (ERG11 copies: 2, Erg11p: no key change) | ≤ 0.06 mg/L [S] |
| Candida tropicalis isolate 56 (ERG11 copies: 2, Erg11p: Y132F, S154F (heterozygous)) | ≤ 0.06 mg/L [S] |
| Candida tropicalis isolate 42 (ERG11 copies: 8, Erg11p: Y132F, S154F (heterozygous)) | ≤ 0.06 mg/L [S] |
| Candida tropicalis isolate 203 (ERG11 copies: 3, Erg11p: Y132F, S154F (heterozygous)) | ≤ 0.06 mg/L [S] |
| Candida tropicalis isolate 248 (ERG11 copies: 2, Erg11p: no key change) | 0.12 mg/L [S] |
| Candida tropicalis isolate 184 (ERG11 copies: 2, Erg11p: no key change) | ≤ 0.06 mg/L [S] |
| Candida tropicalis isolate 400 (ERG11 copies: 2, Erg11p: no key change) | ≤ 0.06 mg/L [S] |
| Candida tropicalis isolate 81 (ERG11 copies: 2, Erg11p: no key change) | ≤ 0.06 mg/L [S] |
| Candida tropicalis isolate 18 (ERG11 copies: 9, Erg11p: Y132F, S154F (heterozygous)) | ≤ 0.06 mg/L [S] |
| Candida tropicalis isolate 359 (ERG11 copies: 2, Erg11p: no key change) | ≤ 0.06 mg/L [S] |
| Candida tropicalis isolate 156 (ERG11 copies: 2, Erg11p: no key change) | ≤ 0.06 mg/L [S] |
| Candida tropicalis isolate 40 (ERG11 copies: 2, Erg11p: Y132F, S154F (homozygous)) | ≤ 0.06 mg/L [S] |
| Candida tropicalis isolate 161 (ERG11 copies: 2, Erg11p: no key change) | ≤ 0.06 mg/L [S] |
| Candida tropicalis isolate 84 (ERG11 copies: 12, Erg11p: Y132F, S154F (homozygous)) | ≤ 0.06 mg/L [S] |
| Candida tropicalis isolate 429 (ERG11 copies: 8, Erg11p: Y132F, S154F (heterozygous)) | ≤ 0.06 mg/L [S] |
| Candida tropicalis isolate 167 (ERG11 copies: 6, Erg11p: Y132F, S154F (heterozygous)) | ≤ 0.06 mg/L [S] |
| Candida tropicalis isolate 364 (ERG11 copies: 2, Erg11p: no key change) | ≤ 0.06 mg/L [S] |
| Candida tropicalis isolate 332 (ERG11 copies: 2, Erg11p: no key change) | 0.12 mg/L [S] |

compound: CCCCCOc1ccc(-c2ccc(-c3ccc(C(=O)N[C@H]4C[C@@H](O)[C@@H](O)NC(=O)[C@@H]5[C@@H](O)[C@@H](C)CN5C(=O)[C@H]([C@@H](C)O)NC(=O)[C@H]([C@H](O)[C@@H](O)c5ccc(O)cc5)NC(=O)[C@@H]5C[C@@H](O)CN5C(=O)[C@H]([C@@H](C)O)NC4=O)cc3)cc2)cc1 [anidulafungin]; assay: CLSI broth microdilution.

| Test System | MIC |
| --- | --- |
| Candida tropicalis isolate 188 (ERG11 copies: 2, Erg11p: no key change) | ≤ 0.015 mg/L [S] |
| Candida tropicalis isolate 275 (ERG11 copies: 2, Erg11p: Y132F, S154F (heterozygous)) | 0.03 mg/L [S] |
| Candida tropicalis isolate 247 (ERG11 copies: 2, Erg11p: no key change) | ≤ 0.015 mg/L [S] |
| Candida tropicalis isolate 225 (ERG11 copies: 2, Erg11p: no key change) | 0.03 mg/L [S] |
| Candida tropicalis isolate 119 (ERG11 copies: 2, Erg11p: no key change) | 0.25 mg/L [S] |
| Candida tropicalis isolate 407 (ERG11 copies: 2, Erg11p: no key change) | 0.03 mg/L [S] |
| Candida tropicalis isolate 153 (ERG11 copies: 2, Erg11p: no key change) | 0.12 mg/L [S] |
| Candida tropicalis isolate 229 (ERG11 copies: 2, Erg11p: no key change) | 0.12 mg/L [S] |
| Candida tropicalis isolate 239 (ERG11 copies: 2, Erg11p: no key change) | 0.25 mg/L [S] |
| Candida tropicalis isolate 420 (ERG11 copies: 2, Erg11p: G464S (heterozygous)) | 0.12 mg/L [S] |
| Candida tropicalis isolate 198 (ERG11 copies: 7, Erg11p: Y132F, S154F (heterozygous)) | 0.12 mg/L [S] |
| Candida tropicalis isolate 109 (ERG11 copies: 2, Erg11p: no key change) | 0.03 mg/L [S] |
| Candida tropicalis isolate 134 (ERG11 copies: 2, Erg11p: no key change) | 0.06 mg/L [S] |
| Candida tropicalis isolate 33 (ERG11 copies: 2, Erg11p: no key change) | 0.03 mg/L [S] |
| Candida tropicalis isolate 249 (ERG11 copies: 2, Erg11p: no key change) | 0.03 mg/L [S] |
| Candida tropicalis isolate 179 (ERG11 copies: 6, Erg11p: Y132F, S154F (heterozygous)) | 0.03 mg/L [S] |
| Candida tropicalis isolate 68 (ERG11 copies: 2, Erg11p: no key change) | 0.12 mg/L [S] |
| Candida tropicalis isolate 22 (ERG11 copies: 2, Erg11p: no key change) | 0.12 mg/L [S] |

| Test System | MIC |
| --- | --- |
| Candida tropicalis isolate 56 (ERG11 copies: 2, Erg11p: Y132F, S154F (heterozygous)) | 0.12 mg/L [S] |
| Candida tropicalis isolate 42 (ERG11 copies: 8, Erg11p: Y132F, S154F (heterozygous)) | 0.12 mg/L [S] |
| Candida tropicalis isolate 203 (ERG11 copies: 3, Erg11p: Y132F, S154F (heterozygous)) | 0.12 mg/L [S] |
| Candida tropicalis isolate 248 (ERG11 copies: 2, Erg11p: no key change) | 0.5 µg/mL |
| Candida tropicalis isolate 184 (ERG11 copies: 2, Erg11p: no key change) | ≤ 0.015 mg/L [S] |
| Candida tropicalis isolate 400 (ERG11 copies: 2, Erg11p: no key change) | 0.03 mg/L [S] |
| Candida tropicalis isolate 81 (ERG11 copies: 2, Erg11p: no key change) | ≤ 0.015 mg/L [S] |
| Candida tropicalis isolate 18 (ERG11 copies: 9, Erg11p: Y132F, S154F (heterozygous)) | 0.03 mg/L [S] |
| Candida tropicalis isolate 359 (ERG11 copies: 2, Erg11p: no key change) | 0.06 mg/L [S] |
| Candida tropicalis isolate 156 (ERG11 copies: 2, Erg11p: no key change) | 0.03 mg/L [S] |
| Candida tropicalis isolate 40 (ERG11 copies: 2, Erg11p: Y132F, S154F (homozygous)) | 0.12 mg/L [S] |
| Candida tropicalis isolate 161 (ERG11 copies: 2, Erg11p: no key change) | 0.12 mg/L [S] |
| Candida tropicalis isolate 84 (ERG11 copies: 12, Erg11p: Y132F, S154F (homozygous)) | 0.25 mg/L [S] |
| Candida tropicalis isolate 429 (ERG11 copies: 8, Erg11p: Y132F, S154F (heterozygous)) | ≤ 0.015 mg/L [S] |
| Candida tropicalis isolate 167 (ERG11 copies: 6, Erg11p: Y132F, S154F (heterozygous)) | 0.03 mg/L [S] |
| Candida tropicalis isolate 364 (ERG11 copies: 2, Erg11p: no key change) | ≤ 0.015 mg/L [S] |
| Candida tropicalis isolate 332 (ERG11 copies: 2, Erg11p: no key change) | 0.12 mg/L [S] |

compound: CCC(C)n1ncn(-c2ccc(N3CCN(c4ccc(OCC5COC(Cn6cncn6)(c6ccc(Cl)cc6Cl)O5)cc4)CC3)cc2)c1=O [itraconazole]; assay: CLSI broth microdilution.

| Test System | MIC |
| --- | --- |
| Candida tropicalis isolate 188 (ERG11 copies: 2, Erg11p: no key change) | 0.06 mg/L [S] |
| Candida tropicalis isolate 275 (ERG11 copies: 2, Erg11p: Y132F, S154F (heterozygous)) | 0.25 mg/L [S] |
| Candida tropicalis isolate 247 (ERG11 copies: 2, Erg11p: no key change) | 0.06 mg/L [S] |
| Candida tropicalis isolate 225 (ERG11 copies: 2, Erg11p: no key change) | 0.12 mg/L [S] |
| Candida tropicalis isolate 119 (ERG11 copies: 2, Erg11p: no key change) | 0.12 mg/L [S] |
| Candida tropicalis isolate 407 (ERG11 copies: 2, Erg11p: no key change) | 0.5 mg/L [S] |
| Candida tropicalis isolate 153 (ERG11 copies: 2, Erg11p: no key change) | 0.25 mg/L [S] |
| Candida tropicalis isolate 229 (ERG11 copies: 2, Erg11p: no key change) | 0.5 mg/L [S] |
| Candida tropicalis isolate 239 (ERG11 copies: 2, Erg11p: no key change) | 0.12 mg/L [S] |
| Candida tropicalis isolate 420 (ERG11 copies: 2, Erg11p: G464S (heterozygous)) | ≥ 16 mg/L [R] |
| Candida tropicalis isolate 198 (ERG11 copies: 7, Erg11p: Y132F, S154F (heterozygous)) | 1 mg/L [R] |
| Candida tropicalis isolate 109 (ERG11 copies: 2, Erg11p: no key change) | 0.12 mg/L [S] |
| Candida tropicalis isolate 134 (ERG11 copies: 2, Erg11p: no key change) | 0.06 mg/L [S] |
| Candida tropicalis isolate 33 (ERG11 copies: 2, Erg11p: no key change) | 0.25 mg/L [S] |
| Candida tropicalis isolate 249 (ERG11 copies: 2, Erg11p: no key change) | 0.12 mg/L [S] |
| Candida tropicalis isolate 179 (ERG11 copies: 6, Erg11p: Y132F, S154F (heterozygous)) | 0.25 mg/L [S] |
| Candida tropicalis isolate 68 (ERG11 copies: 2, Erg11p: no key change) | 0.25 mg/L [S] |

MIC of invasive clinical C. tropicalis isolates, CLSI broth microdilution (fluconazole 0.12-256 mg/L, up to 1,024 for the azole-resistant cluster and its neighbour group; other ranges not stated); higher = less susceptible. Call: susceptible or wild type [S] / resistant or non-wild type [R] by CLSI breakpoints or cut-offs; intermediate and dose-dependent carry no call. '<=' and '>=' at the end values are inferred; the source marks only some of them. Isolates are numbered anew.
